Test results taken from PubChem BioAssay (Tox21).
This list was built around the results that the source calls inconclusive (neither active nor inactive); the mix of calls is not that of the screen. For part of these data: Potencies of inconclusive entries are doubtful fits and often do not repeat. Activity calls are given as the source filed them. Unless noted, calls follow the shape of the dose curve; as a rule, active = well fitted curve in the direction sought with a large enough effect in the repeat runs; inconclusive = weak or mixed curves; inactive = no such curve, though single readings can be large; an effect the other way counts as inactive or inconclusive.

How the values were obtained:
[1] = qHTS assay for small molecule agonists of the p53 signaling pathway (AID 651631; calls by dose curve; also: potency is read from the fitted curve at half-maximal effect; nearly all actives have a fitted effect of over 15% in size); settings: HCT-116 p53RE-bla reporter, beta-lactamase FRET ratio, 16 h; activation: at 73.3 µM (top of the series) unless noted
Summary of the method: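 Quantitative high-throughput format: 4,000 p53RE-bla HCT-116 cells/well, 5 h pre-incubation, 16 h compound exposure at 37 °C, 2 h room-temperature substrate step, fluorescence intensity measured.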

[2] = qHTS assay for small molecule agonists of the p53 signaling pathway - cell viability (AID 651633; calls by dose curve; also: nearly all actives have a fitted effect of over 30% in size; also: potency is read from the fitted curve at half-maximal effect)
Summary of the method: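 Viability counter-read: CellTiter-Glo luminescence (30 min, room temperature) in the same p53RE-bla plates. These plates had been exposed to compounds for 16 h at 37 C.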

[3] = qHTS assay to test for compound auto fluorescence at 460 nm (blue) in HEK293 cells (AID 720678); also: potency is read from the fitted curve at half-maximal effect
Summary of the method: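 Intrinsic compound fluorescence is recorded in live HEK293 cultures after overnight incubation at 37C, 5% CO2, using excitation 405 nm and emission 460 nm. Values are referenced to triamterene.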

[4] = qHTS assay to test for compound auto fluorescence at 460 nm (blue) in HEK293 cell free culture (AID 720681); also: potency is read from the fitted curve at half-maximal effect
Summary of the method: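 Blue fluorescence (Ex 405/Em 460 nm, triamterene-equivalent) was read immediately after pin transfer of compound or DMSO into medium (DMEM, 10% FBS) without cells.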

[5] = qHTS assay to test for compound auto fluorescence at 460 nm (blue) in HepG2 cell free culture (AID 720685); also: potency is read from the fitted curve at half-maximal effect
Summary of the method: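 Compound (23 nL) or DMSO pinned into cell-free MEM with 10% FBS; blue fluorescence read at 405/460 nm excitation/emission, expressed as auto-fluorescence equivalency to triamterene.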

[6] = qHTS assay to test for compound auto fluorescence at 460 nm (blue) in HepG2 cells (AID 720687); also: potency is read from the fitted curve at half-maximal effect
Summary of the method: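 Blue-channel autofluorescence (Ex/Em 405/460 nm, triamterene-equivalent) was measured after 1 hr compound exposure at 37 C, 5% CO2. Cells were HepG2, plated overnight at 37 C in MEM plus 10% FBS.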

[7] = molecular target: Glucocorticoid receptor (Homo sapiens) (UniProt P04150); assay: qHTS assay to identify small molecule antagonists of the glucocorticoid receptor (GR) signaling pathway (AID 720692; active = well fitted inhibition curve with a large enough effect in the signal ratio in the repeat runs, not every such curve was filed as active; inconclusive = weak or mixed curves, or effect the other way; inactive = no such curve, though single readings can be large or run the other way; the % refers to the signal ratio; also: % is scaled to controls: 0 for no effect and ±100 for the full control effect); settings: GR-bla HeLa, beta-lactamase FRET ratio, dexamethasone-stimulated, 18 h; activity change, negative = inhibition: at 58.5 µM (top of the series) unless noted
Summary of the method: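 GR-bla HeLa cells carrying a GRE-driven beta-lactamase reporter received compound after 4 h plating, then dexamethasone (5 nM final). After 18 h at 37C, the FRET substrate was loaded for 2 h at room temperature and fluorescence read.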

[8] = qHTS assay to identify small molecule antagonists of the androgen receptor (AR) signaling pathway - cell viability counter screen (AID 743033; also: potency is read from the fitted curve at half-maximal effect; nearly all actives have a fitted effect of over 45% in size); settings: AR-bla HEK293 viability, CellTiter-Glo luminescence, 16 h; activity change, negative = cytotoxicity: at 58.5 µM (top of the series) unless noted
[9] = molecular target: Androgen receptor (Homo sapiens) (UniProt P10275); assay: qHTS assay to identify small molecule agonists of the androgen receptor (AR) signaling pathway (AID 743036; active = well fitted activation curve with a large enough effect in the signal ratio in the repeat runs, with a control signal flat, not every such curve was filed as active; inconclusive = weak or mixed curves, or effect the other way; inactive = no such curve, though single readings can be large or run the other way; the % refers to the signal ratio; also: % is scaled to controls: 0 for no effect and ±100 for the full control effect); settings: HEK293 AR-UAS-bla GripTite, beta-lactamase FRET ratio, 16 h; activation: at 62.4 µM (top of the series) unless noted
Summary of the method: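 Beta-lactamase under UAS control, stably integrated in HEK293 GripTite cells, reports receptor activation. After 16 h compound treatment, cells received FRET substrate for 2 h at room temperature before fluorescence reading.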

[10] = qHTS assay to identify small molecule antagonists of the thyroid receptor (TR) signaling pathway - cell viability counter screen (AID 743064); settings: GH3.TRE-Luc viability, CellTiter-Fluor, 24 h; activity change, negative = cytotoxic: at 70.3 µM (top of the series) unless noted; also: potency is read from the fitted curve at half-maximal effect; nearly all actives have a fitted effect of over 50% in size
Summary of the method: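 Compounds were tested on GH3.TRE-Luc cells in the presence of T3 at 1 nM final. Following 23.5 h at 37 °C, cell viability was quantified by CellTiter-Fluor.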

[11] = molecular target: Estrogen receptor (Homo sapiens) (UniProt P03372); assay: qHTS assay to identify small molecule agonists of the estrogen receptor alpha (ER-alpha) signaling pathway using the BG1 cell line (AID 743079); settings: BG1Luc4E2 cells, ERE-luciferase agonist, 22 h; activation: at 70.3 µM (top of the series) unless noted; also: potency is read from the fitted curve at half-maximal effect; nearly all actives have a fitted effect of over 20% in size
[12] = qHTS assay to identify small molecule antagonists of the estrogen receptor alpha (ER-alpha) signaling pathway using the BG1 cell line (AID 743080; calls by dose curve;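 also: BG1 cells stimulated with 17beta-estradiol alongside compound; nearly all actives have a fitted effect of over 25% in size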; also: potency is read from the fitted curve at half-maximal effect); settings: BG1Luc4E2 ERE-luciferase antagonist mode, luminescence; activity change, negative = inhibition: at 70.3 µM (top of the series) unless noted
Summary of the method: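 Readout is ONE-Glo luminescence, taken 30 min at room temperature after reagent addition, preceded by a CellTiter-Fluor viability read; BG1-Luc-4E2 cells had received compound and 17beta-estradiol for 21.5 h at 37 C.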

[13] = molecular target: Aromatase (Homo sapiens) (UniProt P11511); assay: qHTS assay to identify aromatase inhibitors (AID 743083); also: potency is read from the fitted curve at half-maximal effect; nearly all actives have a fitted effect of over 55% in size
[14] = qHTS assay to identify small molecule that activate the aryl hydrocarbon receptor (AhR) signaling pathway - cell viability counter screen (AID 743086); also: potency is read from the fitted curve at half-maximal effect; nearly all actives have a fitted effect of over 45% in size
Summary of the method: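 Cytotoxicity counter screen: CellTiter-Fluor signal (30 min, 37 C) in 4000 HepG2 cells/well carrying the DRE-luciferase reporter, following 24 h compound exposure at 37 C.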

[15] = molecular target: Nuclear receptor subfamily 1 group I member 2 (Homo sapiens) (UniProt O75469); assay: Human pregnane X receptor (PXR) activation by small molecules, qHTS assay (AID 1346985); also: potency is read from the fitted curve at half-maximal effect; nearly all actives have a fitted effect of over 40% in size
Summary of the method: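 DPX-2 cells (HepG2 co-transfected with a PXR response element and a CYP3A4-promoter luciferase construct) were seeded at 2,000 per well, rested 5 hr at 37C, then exposed to DMSO-dissolved compounds for 24 hr. Activation was read as luciferase luminescence.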

[16] = qHTS assay for small molecule disruptors of the mitochondrial membrane potential (AID 720635); settings: HepG2 mitochondrial membrane potential, Mito-MPS dye ratio; ratio activity, negative = MMP loss: at 83.2 µM (top of the series) unless noted; also: % is scaled to controls: 0 for no effect and ±100 for the full control effect
Summary of the method: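 Mitochondrial membrane potential tracked with Mito-MPS dye, red aggregates (ex 540/em 590 nm) against green monomers (ex 490/em 535 nm). Compound treatment 1 hr at 37C, dye 30 min in HepG2.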

[17] = qHTS assay to identify small molecule antagonists of the estrogen receptor alpha (ER-alpha) signaling pathway - cell viability counter screen (AID 743074; calls by dose curve;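 also: HEK293 cells carrying ER-alpha-UAS-bla reporter stimulated with 17beta-estradiol; nearly all actives have a fitted effect of over 45% in size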; also: potency is read from the fitted curve at half-maximal effect)
[18] = molecular target: Aryl hydrocarbon receptor (Homo sapiens) (UniProt P35869); assay: qHTS assay to identify small molecule that activate the aryl hydrocarbon receptor (AhR) signaling pathway (AID 743085);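 also: HG2L7.5c1 human HepG2 liver cells with stably integrated DRE-driven firefly reporter; % is scaled to controls: 0 for no effect and ±100 for the full control effect; nearly all actives have a fitted effect of over 15% in size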
Summary of the method: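 24 h compound exposure, 37C, HepG2-derived HG2L7.5c1 cells with DRE-responsive luciferase. Readouts: fluorescence viability, then luminescence at room temperature after 30 min.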

[19] = molecular target: Peroxisome proliferator-activated receptor gamma (Homo sapiens) (UniProt P37231); assay: qHTS assay to identify small molecule agonists of the peroxisome proliferator-activated receptor gamma (PPARg) signaling pathway (AID 743094; active = well fitted activation curve with a large enough effect in the signal ratio in the repeat runs, not every such curve was filed as active; inconclusive = weak or mixed curves, or effect the other way; inactive = no such curve, though single readings can be large or run the other way; the % refers to the signal ratio; also: % is scaled to controls: 0 for no effect and ±100 for the full control effect); settings: HEK293H PPARg-UAS-bla, beta-lactamase FRET ratio, 17 h; activation: at 57 µM (top of the series) unless noted
Summary of the method: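 GeneBLAzer PPARg UAS-bla HEK293H cells were plated, rested 5 h, then exposed to compounds for 17 h at 37C. Beta-lactamase activity was read by LiveBLAzer B/G FRET substrate fluorescence after 1 h at room temperature.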

[20] = molecular target: Nuclear receptor subfamily 1 group I member 2 (Homo sapiens) (UniProt O75469); assay: CYP3A4 induction through human pregnane X receptor (PXR) by small molecules, qHTS assay (AID 1346984); settings: DPX-2 HepG2 PXR, CYP3A4-luciferin luminescence, 24 h; activation: at 46.1 µM (top of the series) unless noted; also: nearly all actives have a fitted effect of over 40% in size; also: potency is read from the fitted curve at half-maximal effect
Summary of the method: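 DPX-2 HepG2 cells carrying a PXR response element and CYP3A4-promoter luciferase construct, treated with compounds 24 hr at 37C. Then P450-Glo CYP3A4 Luciferin-IPA substrate (3uM final) for 3 hr at 37C, One-Glo added, luminescence read.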

[21] = qHTS assay to identify small molecule antagonists of the androgen receptor (AR) signaling pathway using the MDA cell line - cell viability counter screen (AID 743041; also: % is scaled to controls: 0 for no effect and ±100 for the full control effect; nearly all actives have a fitted effect of over 45% in size); settings: MDA-kb2 viability, CellTiter-Fluor, 16 h, cells co-treated with R1881 androgen agonist; viability change, negative = cytotoxic: at 70.3 µM (top of the series)
Summary of the method: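 R1881-driven MDA-kb2 AR-luc cells, 3,000/well, were dosed with library compounds for 16 h; cell health came from CellTiter-Fluor fluorescence in the reporter wells.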

[22] = qHTS assay for identifying genotoxic compounds that show differential cytotoxicity against isogenic chicken DT40 cell lines with known DNA damage response pathways - wild type cell line (AID 743012); settings: DT40 wild type chicken cells viability, CellTiter-Glo, 40 h; activity change, negative = cytotoxicity: at 68.4 µM (top of the series) unless noted; also: potency is read from the fitted curve at half-maximal effect; nearly all actives have a fitted effect of over 60% in size
Summary of the method: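 Wild-type DT40 cells (300/well) exposed to compounds for 40 hours at 37 C/5% CO2. Viability read by CellTiter-Glo luminescence after 30 min at room temperature.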

[23] = qHTS assay for identifying genotoxic compounds that show differential cytotoxicity against isogenic chicken DT40 cell lines with known DNA damage response pathways - Rev3 mutant cell line (AID 743014); settings: chicken DT40 Rev3-/- viability, CellTiter-Glo, 40 h; activity, negative = cytotoxicity: at 68.4 µM (top of the series) unless noted; also: potency is read from the fitted curve at half-maximal effect; nearly all actives have a fitted effect of over 55% in size
[24] = qHTS assay for identifying genotoxic compounds that show differential cytotoxicity against isogenic chicken DT40 cell lines with known DNA damage response pathways - Rad54/Ku70 mutant cell line (AID 743015); settings: DT40 Rad54/Ku70 mutant viability, CellTiter-Glo, 40 h; activity change, negative = cytotoxicity: at 66.8 µM (top of the series) unless noted; also: potency is read from the fitted curve at half-maximal effect; nearly all actives have a fitted effect of over 60% in size
[25] = qHTS assay to identify small molecule antagonists of the thyroid receptor (TR) signaling pathway (AID 743065); also: potency is read from the fitted curve at half-maximal effect; nearly all actives have a fitted effect of over 55% in size
Summary of the method: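 Antagonism measured as loss of luciferase signal in GH3 cells stably carrying a TRE-luciferase reporter, co-treated with compound and T3 (1 nM final) for 23.5 h at 37 C. Viability was read in the same well by CellTiter-Fluor.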

[26] = qHTS assay to identify small molecule antagonists of the estrogen receptor alpha (ER-alpha) signaling pathway using the BG1 cell line - cell viability counter screen (AID 743081); settings: BG1Luc4E2 viability, CellTiter-Fluor, 22 h; activity change, negative = cytotoxicity: at 70.3 µM (top of the series) unless noted
Tags tell the direction and shape of the fitted curve or compound fluorescence and quenching.

Chain of UniProt P04150 (P04150 whole entry, looked up): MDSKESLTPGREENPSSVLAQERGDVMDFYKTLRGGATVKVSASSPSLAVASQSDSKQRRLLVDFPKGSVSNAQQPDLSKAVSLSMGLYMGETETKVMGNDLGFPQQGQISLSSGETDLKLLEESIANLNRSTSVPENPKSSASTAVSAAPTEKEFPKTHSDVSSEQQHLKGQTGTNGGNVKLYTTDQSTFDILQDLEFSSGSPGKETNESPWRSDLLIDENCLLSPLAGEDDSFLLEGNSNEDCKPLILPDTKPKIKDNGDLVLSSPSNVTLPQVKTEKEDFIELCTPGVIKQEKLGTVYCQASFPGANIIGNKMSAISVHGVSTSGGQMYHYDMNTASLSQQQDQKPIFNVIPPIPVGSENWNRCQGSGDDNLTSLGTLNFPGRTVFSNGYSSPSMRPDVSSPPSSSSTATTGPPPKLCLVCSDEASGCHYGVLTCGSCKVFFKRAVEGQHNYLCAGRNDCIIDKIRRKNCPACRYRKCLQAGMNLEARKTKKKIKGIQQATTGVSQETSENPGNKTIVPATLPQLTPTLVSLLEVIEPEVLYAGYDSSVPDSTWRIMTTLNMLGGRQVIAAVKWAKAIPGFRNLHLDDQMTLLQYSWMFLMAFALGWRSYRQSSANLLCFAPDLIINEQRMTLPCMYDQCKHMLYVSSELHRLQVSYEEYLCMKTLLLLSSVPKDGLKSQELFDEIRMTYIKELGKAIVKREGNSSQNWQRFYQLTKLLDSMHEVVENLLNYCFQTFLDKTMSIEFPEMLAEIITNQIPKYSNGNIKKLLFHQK
Chain of UniProt P35869 (P35869 whole entry, looked up): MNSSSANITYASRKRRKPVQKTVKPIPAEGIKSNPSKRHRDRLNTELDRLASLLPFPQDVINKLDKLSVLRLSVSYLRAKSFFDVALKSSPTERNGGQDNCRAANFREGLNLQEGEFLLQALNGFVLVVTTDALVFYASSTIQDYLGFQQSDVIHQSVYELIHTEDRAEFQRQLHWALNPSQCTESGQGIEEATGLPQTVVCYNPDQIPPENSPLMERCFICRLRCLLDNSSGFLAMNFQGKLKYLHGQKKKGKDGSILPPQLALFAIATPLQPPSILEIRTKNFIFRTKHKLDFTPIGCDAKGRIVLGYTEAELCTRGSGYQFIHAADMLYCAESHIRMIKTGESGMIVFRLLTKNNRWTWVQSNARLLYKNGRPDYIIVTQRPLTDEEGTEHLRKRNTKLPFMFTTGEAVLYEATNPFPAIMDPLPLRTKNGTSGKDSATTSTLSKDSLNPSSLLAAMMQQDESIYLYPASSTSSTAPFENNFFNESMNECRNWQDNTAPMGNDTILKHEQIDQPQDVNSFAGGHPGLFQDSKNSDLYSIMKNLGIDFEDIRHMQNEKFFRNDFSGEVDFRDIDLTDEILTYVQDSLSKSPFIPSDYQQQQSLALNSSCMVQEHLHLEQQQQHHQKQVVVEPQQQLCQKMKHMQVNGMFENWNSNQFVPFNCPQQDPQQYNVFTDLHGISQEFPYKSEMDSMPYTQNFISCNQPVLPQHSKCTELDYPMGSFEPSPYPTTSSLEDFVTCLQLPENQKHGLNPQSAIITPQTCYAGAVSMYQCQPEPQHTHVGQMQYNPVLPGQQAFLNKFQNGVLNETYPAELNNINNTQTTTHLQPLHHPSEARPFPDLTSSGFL
Chain of UniProt P37231 (P37231 whole entry, looked up): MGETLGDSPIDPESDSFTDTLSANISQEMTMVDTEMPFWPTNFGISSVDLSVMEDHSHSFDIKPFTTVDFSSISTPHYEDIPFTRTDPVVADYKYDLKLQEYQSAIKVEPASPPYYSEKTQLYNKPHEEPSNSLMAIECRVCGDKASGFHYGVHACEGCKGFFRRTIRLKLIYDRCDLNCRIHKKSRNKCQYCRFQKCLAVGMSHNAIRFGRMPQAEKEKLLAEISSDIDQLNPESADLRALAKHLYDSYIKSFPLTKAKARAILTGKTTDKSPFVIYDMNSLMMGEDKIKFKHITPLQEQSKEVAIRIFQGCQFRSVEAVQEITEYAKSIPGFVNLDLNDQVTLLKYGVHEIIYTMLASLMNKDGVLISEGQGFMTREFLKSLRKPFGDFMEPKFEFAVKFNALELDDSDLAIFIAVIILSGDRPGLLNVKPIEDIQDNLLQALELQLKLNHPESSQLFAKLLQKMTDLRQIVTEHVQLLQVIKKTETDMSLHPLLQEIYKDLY
Chain of UniProt P03372 (P03372 whole entry, looked up): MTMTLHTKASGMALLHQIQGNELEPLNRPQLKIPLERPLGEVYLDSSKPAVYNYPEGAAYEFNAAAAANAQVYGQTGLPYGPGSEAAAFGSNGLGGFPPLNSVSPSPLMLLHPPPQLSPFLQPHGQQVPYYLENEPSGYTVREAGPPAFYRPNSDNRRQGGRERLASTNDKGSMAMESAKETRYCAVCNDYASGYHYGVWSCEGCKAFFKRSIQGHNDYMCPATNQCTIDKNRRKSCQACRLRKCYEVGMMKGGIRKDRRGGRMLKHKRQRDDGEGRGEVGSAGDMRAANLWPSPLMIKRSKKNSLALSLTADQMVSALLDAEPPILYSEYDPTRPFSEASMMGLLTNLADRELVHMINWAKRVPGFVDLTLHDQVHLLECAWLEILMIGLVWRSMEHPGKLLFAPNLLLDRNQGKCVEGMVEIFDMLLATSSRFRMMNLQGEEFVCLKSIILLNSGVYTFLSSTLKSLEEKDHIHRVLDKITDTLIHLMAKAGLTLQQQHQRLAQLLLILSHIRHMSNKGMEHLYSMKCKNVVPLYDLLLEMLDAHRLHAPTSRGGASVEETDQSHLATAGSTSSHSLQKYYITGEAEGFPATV
Chain of UniProt P10275 (P10275 whole entry, looked up): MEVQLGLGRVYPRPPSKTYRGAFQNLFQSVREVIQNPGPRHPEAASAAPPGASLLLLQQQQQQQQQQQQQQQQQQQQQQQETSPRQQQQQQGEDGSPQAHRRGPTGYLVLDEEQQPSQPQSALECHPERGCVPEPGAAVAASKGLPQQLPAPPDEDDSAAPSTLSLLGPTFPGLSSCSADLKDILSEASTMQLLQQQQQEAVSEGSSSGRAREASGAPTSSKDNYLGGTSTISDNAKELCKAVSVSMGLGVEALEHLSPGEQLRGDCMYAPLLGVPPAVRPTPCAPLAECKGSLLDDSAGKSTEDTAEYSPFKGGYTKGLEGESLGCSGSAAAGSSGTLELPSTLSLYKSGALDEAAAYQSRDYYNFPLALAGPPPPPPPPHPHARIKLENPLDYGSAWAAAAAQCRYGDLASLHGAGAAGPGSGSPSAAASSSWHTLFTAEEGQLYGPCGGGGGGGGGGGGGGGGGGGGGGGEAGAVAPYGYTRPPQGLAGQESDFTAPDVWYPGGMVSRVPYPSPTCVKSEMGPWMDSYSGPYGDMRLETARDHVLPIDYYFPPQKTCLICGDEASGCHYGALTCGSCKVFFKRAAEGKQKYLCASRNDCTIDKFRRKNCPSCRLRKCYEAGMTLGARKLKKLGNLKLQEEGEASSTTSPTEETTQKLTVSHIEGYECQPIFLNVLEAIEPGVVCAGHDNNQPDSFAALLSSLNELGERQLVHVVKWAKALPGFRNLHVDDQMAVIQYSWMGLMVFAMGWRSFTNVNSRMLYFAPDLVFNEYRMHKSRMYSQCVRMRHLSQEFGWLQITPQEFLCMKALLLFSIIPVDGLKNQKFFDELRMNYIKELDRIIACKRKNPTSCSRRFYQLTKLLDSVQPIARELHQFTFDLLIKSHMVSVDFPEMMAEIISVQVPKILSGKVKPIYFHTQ
Chain of UniProt P11511 (P11511 whole entry, looked up): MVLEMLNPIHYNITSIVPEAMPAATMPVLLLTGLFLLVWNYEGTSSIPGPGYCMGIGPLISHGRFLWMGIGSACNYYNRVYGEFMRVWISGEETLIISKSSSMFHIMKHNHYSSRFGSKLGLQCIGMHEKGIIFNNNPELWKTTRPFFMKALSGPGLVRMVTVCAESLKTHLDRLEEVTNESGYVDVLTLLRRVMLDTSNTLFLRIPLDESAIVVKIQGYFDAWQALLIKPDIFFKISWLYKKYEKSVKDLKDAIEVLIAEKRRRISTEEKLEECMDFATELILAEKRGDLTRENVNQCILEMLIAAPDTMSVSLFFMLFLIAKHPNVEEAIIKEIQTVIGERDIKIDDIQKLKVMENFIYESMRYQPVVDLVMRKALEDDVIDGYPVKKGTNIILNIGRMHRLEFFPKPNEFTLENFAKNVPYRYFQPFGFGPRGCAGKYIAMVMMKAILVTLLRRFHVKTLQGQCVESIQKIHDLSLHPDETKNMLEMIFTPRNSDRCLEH

O=C1C(=O)c2ncccc2-c2cccnc21
active: Potency [1] 1.68 µM | Potency [12] 5.96 µM | Potency [13] 23.7 µM
inconclusive: Potency [2] 2.98 µM [cytotoxic, partial curve, poor fit] | Potency [3] 22.4 µM [fluorescent, single point] | Potency [4] 28.2 µM [rising, single point] | Potency [5] 28.2 µM [fluorescent, single point] | Potency [6] 25.1 µM [fluorescent, single point] | activity change, negative = inhibition [7] -27.6% | Potency [8] 19 µM [cytotoxic, partial curve] | activation [9] 32.1% | Potency [10] 29.8 µM [rising, partial curve] | Potency [11] 3.35 µM [inhibitor, full curve] | Potency [14] 33.5 µM [rising, single point] | Potency [15] 12.6 µM [activator, partial curve]

CO/N=C(\C(=O)N[C@@H]1C(=O)N2C(C(=O)[O-])=C(C[n+]3cccc4c3CCC4)CS[C@H]12)c1csc(N)n1
inconclusive: activation [19] 11.5%
inactive: Potency [16] | Potency [17] | Potency [18] | Potency [20]

Nc1nc2[nH]cc(CCc3ccc(C(=O)N[C@@H](CCC(=O)O)C(=O)O)cc3)c2c(=O)[nH]1
inactive: Potency [16] | Potency [21] | Potency [12] | Potency [20]
inconclusive: Potency [1] 18.8 µM [fluorescent, partial curve, poor fit] | Potency [17] 2.39 µM [cytotoxic, full curve]

CN(C)CCC(O)(c1ccccc1)c1ccccc1Cl (stereo unspecified)
active: Potency [20] 12.6 µM | Potency [15] 15.8 µM
inconclusive: Potency [22] 33.5 µM [cytotoxic, single point] | Potency [23] 33.5 µM [cytotoxic] | Potency [24] 33.5 µM [cytotoxic, partial curve, poor fit] | Potency [10] 21.1 µM [cytotoxic, partial curve] | Potency [25] 21.1 µM [inhibitor, partial curve] | Potency [26] 0.188 µM [rising, partial curve, poor fit]
inactive: Potency [2] | Potency [16]
